Data: the supplement of paper PMC12067230
Single values of this set are uncertain.
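Also: [psi-pin-] Saccharomyces cerevisiae expressing SupN fusions, induced by 100 µM Cu2SO4, selected 7 d at 30 °C without adenine and uracil, scored by deep sequencing of output versus input.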

Test: amyloid nucleation score relative to library mode (yeast Sup35 reporter selection) (log enrichment difference); higher = more amyloid nucleation; sequences are the first 22 residues of the Bri2 peptide extended by up to 12 random residues
Settings: random library (experiment): 1;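 active = nucleation score significantly above 0 at FDR 0.05; inactive = not significantly above 0 or absent from output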
For EASNCFAIRHFENKFAVETLICQLRI, the amyloid nucleation score was “inactive”. Sequence EASNCFAIRHFENKFAVETLICVGVRPDMEFNNK has an amyloid nucleation score of 3.44. For EASNCFAIRHFENKFAVETLICRWWIGME, the amyloid nucleation score was “inactive”. For EASNCFAIRHFENKFAVETLICHIVNRDRHAWQ, the amyloid nucleation score was 4.83. EASNCFAIRHFENKFAVETLICTGIVGSLVYFDA showed an amyloid nucleation score of 5.17. In the case of EASNCFAIRHFENKFAVETLICLVSESSRLETWG, the amyloid nucleation score is reported as “inactive”. With EASNCFAIRHFENKFAVETLICWIKCSLGDVTWA the amyloid nucleation score was 4.88. For EASNCFAIRHFENKFAVETLICWWKKASLGPPAG, the amyloid nucleation score was -0.0664. With EASNCFAIRHFENKFAVETLICVITLVFQLPICF the amyloid nucleation score was “inactive”. In the case of EASNCFAIRHFENKFAVETLICFEMLLVRSVPGR, the amyloid nucleation score is reported as “inactive”. Work on EASNCFAIRHFENKFAVETLICILDSQRWDGSIG yielded an amyloid nucleation score of 4.94. In the case of EASNCFAIRHFENKFAVETLICVLSGMDWLRRVK, the amyloid nucleation score is reported as “inactive”. In the case of EASNCFAIRHFENKFAVETLICRVQRREGNRSGW, the amyloid nucleation score is reported as “inactive”. With EASNCFAIRHFENKFAVETLICLWALANE the amyloid nucleation score was “inactive”. In the case of EASNCFAIRHFENKFAVETLICLEWSAACRGDHA, the amyloid nucleation score is reported as “inactive”. Sequence EASNCFAIRHFENKFAVETLICKVAAKWSRCAST has an amyloid nucleation score of 0.7. For EASNCFAIRHFENKFAVETLICAANETSV, the amyloid nucleation score was “inactive”. In the case of EASNCFAIRHFENKFAVETLICVHIYGQVTFERV, the amyloid nucleation score is reported as -0.0846. In the case of EASNCFAIRHFENKFAVETLICMSEICSAMVNSR, the amyloid nucleation score is reported as “inactive”. For EASNCFAIRHFENKFAVETLICFMGNSEGVVCEL, the amyloid nucleation score was “inactive”. For EASNCFAIRHFENKFAVETLICFHYLEVRELILA, the amyloid nucleation score was “inactive”. In the case of EASNCFAIRHFENKFAVETLICAIVPYIMLDKCG, the amyloid nucleation score is reported as “inactive”. For EASNCFAIRHFENKFAVETLICVSPSQYEGFMRQ, the amyloid nucleation score was 4.45. With EASNCFAIRHFENKFAVETLICTRLFRVSFWTCW the amyloid nucleation score was “inactive”. In the case of EASNCFAIRHFENKFAVETLICDLNRDESCLTLQ, the amyloid nucleation score is reported as “inactive”. With EASNCFAIRHFENKFAVETLICGCRHALNRRLGW the amyloid nucleation score was “inactive”. In the case of EASNCFAIRHFENKFAVETLICYLSRCVTVCTPL, the amyloid nucleation score is reported as “inactive”. For EASNCFAIRHFENKFAVETLICVYASTFASELLT, the amyloid nucleation score was 1.57. Work on EASNCFAIRHFENKFAVETLICLPVAWDYCCQVG yielded an amyloid nucleation score of 5.5. In the case of EASNCFAIRHFENKFAVETLICTRRFVWVPWVAH, the amyloid nucleation score is reported as -0.511. EASNCFAIRHFENKFAVETLICVGLGTSRYRDCC gave an amyloid nucleation score of 1.23. In the case of EASNCFAIRHFENKFAVETLICNTMVTKYHRIVS, the amyloid nucleation score is reported as “inactive”. For EASNCFAIRHFENKFAVETLICTLLFASGVMLRI, the amyloid nucleation score was “inactive”. EASNCFAIRHFENKFAVETLICRCIEFLKIVVVG gave an amyloid nucleation score of -0.0935. In the case of EASNCFAIRHFENKFAVETLICLTICRWGCFAFC, the amyloid nucleation score is reported as “inactive”. With EASNCFAIRHFENKFAVETLICKHRLEGQEDGFK the amyloid nucleation score was “inactive”. With EASNCFAIRHFENKFAVETLICYSLDLCRSLMRG the amyloid nucleation score was “inactive”. For EASNCFAIRHFENKFAVETLICTPLQAWQRSVPR, the amyloid nucleation score was “inactive”. In the case of EASNCFAIRHFENKFAVETLICANPTVWGANS, the amyloid nucleation score is reported as “inactive”. For EASNCFAIRHFENKFAVETLICYRQSFARDDRGC, the amyloid nucleation score was 2.63. With EASNCFAIRHFENKFAVETLICMLTMGKGARECR the amyloid nucleation score was “inactive”. EASNCFAIRHFENKFAVETLICLPISCCIVVCMN gave an amyloid nucleation score of 2.21. In the case of EASNCFAIRHFENKFAVETLICGVRNNGGGYRLC, the amyloid nucleation score is reported as “inactive”. With EASNCFAIRHFENKFAVETLICCEE the amyloid nucleation score was “inactive”. For EASNCFAIRHFENKFAVETLICVRHGEVRLRARR, the amyloid nucleation score was “inactive”. EASNCFAIRHFENKFAVETLICMTRM gave an amyloid nucleation score of -0.826.

Same assay, conditions: random library (experiment): 2
For EASNCFAIRHFENKFAVETLICYVMRHPTLALSS, the amyloid nucleation score was “inactive”. EASNCFAIRHFENKFAVETLICIQVTQCSKCMDD gave an amyloid nucleation score of 7.35. For EASNCFAIRHFENKFAVETLICTIQNIYRYFVLK, the amyloid nucleation score was “inactive”. For EASNCFAIRHFENKFAVETLICRLDIGIGWCLWR, the amyloid nucleation score was “inactive”. EASNCFAIRHFENKFAVETLICQCARERSRRFEA showed an amyloid nucleation score of 6.71. For EASNCFAIRHFENKFAVETLICLAPLVSLHSNMC, the amyloid nucleation score was 7.09. For EASNCFAIRHFENKFAVETLICGISTTISGSTGA, the amyloid nucleation score was 5.28. With EASNCFAIRHFENKFAVETLICANFCSVPYLYLC the amyloid nucleation score was 4.8. With EASNCFAIRHFENKFAVETLICLATSLSSDDSFS the amyloid nucleation score was “inactive”. EASNCFAIRHFENKFAVETLICGGWSH showed an amyloid nucleation score of 4.13. In the case of EASNCFAIRHFENKFAVETLICMIRFQKATCSKR, the amyloid nucleation score is reported as “inactive”. With EASNCFAIRHFENKFAVETLICELDLSKSSYFGW the amyloid nucleation score was 3.28. With EASNCFAIRHFENKFAVETLICLMYFKFNTIVDG the amyloid nucleation score was “inactive”. In the case of EASNCFAIRHFENKFAVETLICDIKRCS, the amyloid nucleation score is reported as “inactive”. With EASNCFAIRHFENKFAVETLICMEIYCLSLYFEA the amyloid nucleation score was “inactive”. For EASNCFAIRHFENKFAVETLICHRMWKRDVPAE, the amyloid nucleation score was 0.308. In the case of EASNCFAIRHFENKFAVETLICRLCWESVWGPGE, the amyloid nucleation score is reported as “inactive”. EASNCFAIRHFENKFAVETLICFYIYARVWESDH gave an amyloid nucleation score of 1.63. With EASNCFAIRHFENKFAVETLICRTAIRAEHCVKR the amyloid nucleation score was “inactive”. For EASNCFAIRHFENKFAVETLICGREMSRVGSFRK, the amyloid nucleation score was “inactive”. With EASNCFAIRHFENKFAVETLICFTLSSDYFWSEV the amyloid nucleation score was 3.45. With EASNCFAIRHFENKFAVETLICRGMDENRVTVCE the amyloid nucleation score was “inactive”.

Same assay, conditions: random library (experiment): 3
With EASNCFAIRHFENKFAVETLICPRGVVLRSPVWH the amyloid nucleation score was “inactive”. For EASNCFAIRHFENKFAVETLICHSWSRVWFSYCG, the amyloid nucleation score was “inactive”. For EASNCFAIRHFENKFAVETLICLSIMSDLSSSKV, the amyloid nucleation score was 6.54. With EASNCFAIRHFENKFAVETLICLLKKS the amyloid nucleation score was “inactive”. For EASNCFAIRHFENKFAVETLICVFGYVLVMGMSG, the amyloid nucleation score was “inactive”. In the case of EASNCFAIRHFENKFAVETLICESQVVACSMGVM, the amyloid nucleation score is reported as “inactive”. For EASNCFAIRHFENKFAVETLICVSYAESREYSNV, the amyloid nucleation score was “inactive”. In the case of EASNCFAIRHFENKFAVETLICLCGKCVSCRIEW, the amyloid nucleation score is reported as “inactive”. For EASNCFAIRHFENKFAVETLICWCQQRTLSLSSS, the amyloid nucleation score was “inactive”. EASNCFAIRHFENKFAVETLICTNHGSCGCWSWR showed an amyloid nucleation score of 8.66. For EASNCFAIRHFENKFAVETLICDRTGFNWSYGRR, the amyloid nucleation score was 2.11. For EASNCFAIRHFENKFAVETLICIFHCVTKSDTLC, the amyloid nucleation score was “inactive”. In the case of EASNCFAIRHFENKFAVETLICGSWL, the amyloid nucleation score is reported as 8.86. In the case of EASNCFAIRHFENKFAVETLICLPQWSNKMRFLE, the amyloid nucleation score is reported as “inactive”. For EASNCFAIRHFENKFAVETLICRSPLGRRRPTST, the amyloid nucleation score was “inactive”. In the case of EASNCFAIRHFENKFAVETLICIVWFSMKRSRYY, the amyloid nucleation score is reported as “inactive”. With EASNCFAIRHFENKFAVETLICVYRISW the amyloid nucleation score was 4.11.
